# Source: PubChem BioAssay AID1671193 (National Center for Advancing Translational Sciences (NCATS), 2021)
# “And” between values parts separate entries of the source, which are not always exact repeats. Equal values may be shown once. The campaign covered roughly 150,000 compounds. About 180 (0.12%) were called active. Inconclusive means that the source gave no clear call. Such entries were picked first, then a sample of the others. Calls follow the shape of the dose curve; as a rule, active = well fitted cell-killing curve with a large enough effect; inconclusive = small, poorly fitted or top-dose-only effect, or effect the other way; inactive = flat fitted curve, though single readings scatter. Potencies of inconclusive entries are doubtful fits and often do not repeat.
# Test: GF-AFC viability counterscreen for inhibitors of alpha-synuclein gene (SNCA) expression; also: nearly all actives have a fitted effect of over 30% in size
# Details: HEK-293-SNCA-luc viability, GF-AFC fluorescence, 24 h; series mostly up to 57.1 µM
# In short: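 HEK-293-SNCA-luc cells (1500/well) plated 24 h, then exposed 24 h to a dilution series; GF-AFC added 30 min at 37C, fluorescence 405/540 nm; normalised to medium-only and DMSO wells, Hill fit.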
# Potency is read from the fitted curve at half-maximal effect; tags tell the direction and shape of the fitted curve.
row,Structure (SMILES),Potency
1,Cc1cc2nc(N(Cc3cccnc3)C(=O)c3ccc(Cl)s3)sc2cc1C,"inconclusive: 2 µM [rising, full curve, poor fit]"
2,CC(=O)c1c(C)nn(CC(=O)N2CCn3nc(Cc4ccccc4)cc3C2)c1C,inactive
3,CCNc1ncc2nc(-c3ccc(OC)cc3)c(=O)n(CCc3ccccc3)c2n1,"inconclusive: 3.55 µM [rising, full curve]"
4,CNC(=O)[C@@H]1CN(S(=O)(=O)c2cn(C)cn2)C[C@H]1COC,"inconclusive: 6.31 µM [cytotoxic, single point]"
5,CC/C(=C(\c1ccc(O)cc1)c1ccc(OCCNC)cc1)c1ccccc1,"inconclusive: 33.6 µM [cytotoxic, single point]"
6,COc1ccc(OC)c(NC(=O)Cn2nc3n(c2=O)CCCCC3)c1,inactive
7,Cc1ccc(S(=O)(=O)NCC(Nc2cccc(Cl)c2)c2ccccc2)cc1 (stereo not drawn),"inconclusive: 39.8 µM [cytotoxic, single point]"
8,O=C(Nc1cc(-c2ccccc2)nn1-c1ccccc1F)c1ccc([N+](=O)[O-])cc1,"inconclusive: 5.97 µM [cytotoxic, single point]"
9,COCCN1C(=O)c2ccccc2C(C(=O)Nc2cc(Cl)ccc2OC)C12CCCC2 (stereo not drawn),inactive
10,N#CC1CCN(C(=O)C2CCCN2Cc2ccc(-c3cncnc3)cc2)CC1 (stereo not drawn),inactive
11,CCOc1ccccc1C(=O)Nc1ccc2nc3c(c(Nc4ccc(OC)c(OC)c4)c2c1)CCCC3,"inconclusive: 15.8 µM [cytotoxic, partial curve, poor fit]"
12,COc1ccc(-c2noc(CSc3nc(N)cc(=O)[nH]3)n2)cc1,"inconclusive: 7.94 µM [cytotoxic, partial curve, poor fit]"
13,COc1ccc(-c2ccnc3nc(CC(C)C)nn23)cc1OC,inactive
14,COc1cccc(NC(=O)CCc2nc(-c3cccs3)no2)c1,inactive
15,CCC(=O)N1CCCCCCNC(=O)[C@@H]2CCC[C@@H]21,inactive
16,CC#CCn1cc2c3c(cccc31)[C@H](CC(C)C)N[C@H](C(=O)NCc1ccc(OC)cc1)C2,"inconclusive: 28.2 µM [cytotoxic, single point]"
17,COc1ccc(C(=O)N2CC[C@@H]3COCCN(Cc4cccnc4)[C@@H]3C2)c(OC)c1,"inconclusive: 39.8 µM [cytotoxic, single point]"
18,CNC(=O)c1cc(Oc2ccc(NC(=O)Nc3ccc(Cl)c(C(F)(F)F)c3)cc2)ccn1,"inconclusive: 30.4 µM [cytotoxic, single point] and inconclusive: 15 µM [cytotoxic, partial curve, poor fit]"
